Hit rate of the full screen: of about 310,000 compounds, about 2,200 (0.71%) showed an effect of 50% or more. Effects have a minus sign here. The list shows a part of the results.
biological target: human ether-à-go-go-related gene (hERG) potassium channel (human, UniProt Q12809); test: primary screen, population patch clamp on CHO cells stably expressing hERG
Sequence (Q12809 whole entry, looked up): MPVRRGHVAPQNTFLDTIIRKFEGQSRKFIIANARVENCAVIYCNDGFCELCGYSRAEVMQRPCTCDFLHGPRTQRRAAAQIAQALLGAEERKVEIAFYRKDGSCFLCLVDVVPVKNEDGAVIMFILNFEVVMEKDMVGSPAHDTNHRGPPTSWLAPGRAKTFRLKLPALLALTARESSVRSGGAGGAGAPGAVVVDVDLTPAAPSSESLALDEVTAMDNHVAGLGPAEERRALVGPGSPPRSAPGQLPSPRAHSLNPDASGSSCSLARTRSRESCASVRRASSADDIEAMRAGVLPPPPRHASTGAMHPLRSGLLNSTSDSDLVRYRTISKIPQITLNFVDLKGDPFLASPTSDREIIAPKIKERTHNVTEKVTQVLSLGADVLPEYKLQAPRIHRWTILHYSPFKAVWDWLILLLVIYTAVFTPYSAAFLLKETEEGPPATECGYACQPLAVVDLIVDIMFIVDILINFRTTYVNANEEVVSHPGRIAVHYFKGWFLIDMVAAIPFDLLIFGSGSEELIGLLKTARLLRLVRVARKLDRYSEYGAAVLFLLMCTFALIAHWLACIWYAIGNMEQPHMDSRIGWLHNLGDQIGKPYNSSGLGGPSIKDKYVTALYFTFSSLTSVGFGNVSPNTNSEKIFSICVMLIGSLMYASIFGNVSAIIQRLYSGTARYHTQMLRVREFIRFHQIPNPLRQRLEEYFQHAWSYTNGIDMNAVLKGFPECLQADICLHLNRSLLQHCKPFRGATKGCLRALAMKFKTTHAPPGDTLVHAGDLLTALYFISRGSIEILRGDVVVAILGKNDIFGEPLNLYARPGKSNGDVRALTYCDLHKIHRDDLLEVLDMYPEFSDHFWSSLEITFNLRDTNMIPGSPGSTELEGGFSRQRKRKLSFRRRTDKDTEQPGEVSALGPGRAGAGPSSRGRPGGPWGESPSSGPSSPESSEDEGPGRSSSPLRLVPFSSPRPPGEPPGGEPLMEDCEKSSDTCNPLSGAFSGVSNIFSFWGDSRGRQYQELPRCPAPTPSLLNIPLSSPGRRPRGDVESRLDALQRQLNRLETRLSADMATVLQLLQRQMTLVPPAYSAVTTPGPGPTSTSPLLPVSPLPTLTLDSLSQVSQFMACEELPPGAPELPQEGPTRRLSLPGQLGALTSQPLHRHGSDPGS

Row | Structure (SMILES) | hERG current change (%, negative = inhibition) at 1uM [%]
1 | CCOc1ccc(-n2c(-c3ccc(Br)cc3)c[n+]3c2CCCCC3)cc1.[Br-] | -46.5
2 | O=C(NCCO)/C(=C/c1ccco1)NC(=O)c1ccco1 | 11.4
3 | COc1cc2c(c(OC)c1)C(c1cccc(OC)c1OC)CC(=O)N2 (centres unmarked) | 6.36
4 | Cc1cccc(C)c1NC(=S)NC(=O)CCc1ccccc1 | 6.68
5 | CN(C)c1ccc2c(=O)[nH][nH]c(=O)c2c1 | 14.5
6 | O=C(NC1CC2CCCC(C1)N2Cc1ccc(F)cc1)c1ccc(F)cc1 (centres unmarked) | -38.3
7 | COc1ccc(CCC(=O)Nc2ccc(S(=O)(=O)Nc3ncccn3)cc2)cc1 | 8.82
8 | CNS(=O)(=O)c1cccc(C(=O)OCc2cc(=O)n3cc(Br)ccc3n2)c1 | -0.714
9 | Cc1ccc(SCCC(=O)N2CCCC2)cc1 | 8.86
10 | CCN1CCN(CC(=O)Nc2ccc(Cl)c(Cl)c2)C(=O)C1=O | 7.8
11 | COC(=O)C1=C(c2ccc(C(C)=O)cc2)C[C@@H]2CC[C@H]1N2C(=O)NCc1ccc(C(F)(F)F)cc1 | 20.4
12 | CCCN(C(=O)CCSc1ccc(F)cc1)c1c(N)n(Cc2ccccc2)c(=O)[nH]c1=O | 5.67
13 | O=C(CN1CCN(S(=O)(=O)c2ccc(Cl)cc2)CC1)Nc1ccc2c(c1)OCO2 | -17.3
14 | Cc1[nH]c(=O)[nH]c(=O)c1S(=O)(=O)N1CCN(c2ccccc2F)CC1 | 7.18
15 | Cc1ccc(SCCCCN2CCOCC2)cc1.Cl | 10.8
16 | CC(=O)Nc1ccc(NC(=O)C2CCN(c3ccc(C(F)(F)F)cn3)CC2)cc1 | 12.2
17 | CCN(c1ccc(NC(=O)COC(=O)CCC(=O)c2ccc(F)cc2)cc1)C(C)C | 4.98
18 | O=C(CS(=O)c1ccccc1[N+](=O)[O-])Oc1ccc(Br)cc1 (centres unmarked) | 13.9
19 | COc1ccc(C(=O)N2CCC(n3c(C)nc4cc(F)ccc43)CC2)cc1 | -44.5

Row | Structure (SMILES) | hERG current change (%, negative = inhibition) at 1uM [%]
20 | CCCSC1=C(C#N)C(c2cccs2)CC(=O)N1 (centres unmarked) | 8.8
21 | CN(CCc1ccccn1)C(=O)c1nn2c(C(F)(F)F)cc(-c3ccco3)nc2c1Cl | -16.7
22 | CC(=O)N1CCN=C1SCc1ccc(Br)cc1 | 0.672
23 | O=C(NCc1nnc(SC/C=C/c2ccccc2)o1)c1ccco1 | 8.31
24 | CCN(CC)CCCNS(=O)(=O)c1ccc(OC)cc1 | 15
25 | CCCCn1c(N)c(N(CC)C(=O)c2ccccc2C(F)(F)F)c(=O)[nH]c1=O | 16.8
26 | Cc1ccc(CC(CC(=O)O)C(=O)NCC23CC4CC(CC(C4)C2)C3)cc1 (centres unmarked) | 11.5
27 | CC(C)OC(=O)c1c(-c2ccc(C(C)C)cc2)csc1NC(=O)C1CCCO1 (centres unmarked) | 11.7
28 | CCCN(CC(=O)Nc1ccccc1OC)C(=O)Cn1[nH]c(=O)c2ccccc2c1=O | 9.03
29 | Cc1ccc(C(=O)N2CCN(c3ncccn3)CC2)cc1S(=O)(=O)N1CCCCC1 | 7.45
30 | CCCCn1c(NC(=S)Nc2ccccc2)nc2ccccc21 | 3.56
31 | O=C(NCc1n[nH]c(=O)c2ccccc12)C1CC(=O)N(c2ccc(Cl)cc2)C1 (centres unmarked) | -9.93
32 | CN(C)C(CNC(=O)CCc1nc2sc3c(c2c(=O)[nH]1)CCCC3)c1ccccc1 (centres unmarked) | 7.35
33 | COC(=O)COc1ccc(S(=O)(=O)Nc2ccc3c(c2)OCCO3)cc1C | 17.2
34 | CN(C)S(=O)(=O)c1ccc(C(=O)NCCN=C2NS(=O)(=O)c3ccccc32)cc1 | 19
35 | COc1ccc(Br)c(C(=O)NCCC(C)C)c1 | 12.1
36 | COc1ccc(C(=O)NNC(=O)C2CCN(S(=O)(=O)c3ccc(C)cc3)CC2)cc1 | 7.33
37 | Cc1ccc(C(=O)C(C)OC(=O)C2CC(=O)N(C3CCCCC3)C2)cc1 (centres unmarked) | 9.68
38 | CC(=O)c1cccc(NC(=O)c2ccc(C(=O)Nc3cccc(C(C)=O)c3)nc2)c1 | 13

Row | Structure (SMILES) | hERG current change (%, negative = inhibition) at 1uM [%]
39 | Cc1ccc2c(CC(=O)Nc3c(C)n(C)n(-c4ccccc4)c3=O)coc2c1 | 7.79
40 | C/C(CC(=O)Nc1ccccc1C)=N\NC(=O)Cc1csc(N)n1.CC(C)O | 4.79
41 | CC(=O)Oc1ccc(C(=O)Nc2ccccc2C(=O)Nc2ccc(C(=O)O)cc2)cc1 | 17.6
42 | S=c1[nH]nc(Nc2ccccc2)s1 | 11.8
43 | CCn1c(CCNC(=O)c2ccc(OC)cc2)nnc1SCc1ccc(Cl)cc1Cl | -38.2
44 | O=C(NNc1ccccn1)C(c1ccccc1)c1ccccc1 | 11.9
45 | Cc1nnc(NC(=O)CCn2c(=O)oc3ccccc32)s1 | 17.9
46 | O=C(NCCN1CCOCC1)/C(=C\c1ccc(F)cc1)NC(=O)c1ccccc1 | -51.7
47 | S=C(Nc1ccc2nsnc2c1)N1CCCC1 | 15.5
48 | CCCn1cnc2scc(-c3ccc(OC)cc3)c2c1=O | 8.19
49 | NC(=O)C1CCN(C(=O)N2c3ccccc3Sc3ccccc32)CC1 | 0.149
50 | C=CCN(C)NC(=O)Nc1ccccc1 | 10.6
51 | CCN(CC)C(=O)C1CCCN(Cc2cccc(Oc3ccccc3)c2)C1 (centres unmarked) | 1.85
52 | CCOC(=O)C1CCCN(C(=O)Cn2sc3nc(C)cc(C)c3c2=O)C1 (centres unmarked) | 11.5
53 | COc1ccccc1NC(=O)NCCCN1CCN(c2cccc(Cl)c2)CC1 | -29
54 | COc1ccc(-c2oc(=O)c3cc(OC)c(OC)cc3c2C(F)(F)F)cc1 | 15.6
55 | C/C(=N\NC(=O)c1cccc(S(=O)(=O)N2CCCC2)c1)c1ccccc1F | 8.6
56 | Cc1ccc(S(=O)(=O)N2CCN(C(=O)COC(=O)/C=C/c3ccccc3)CC2)c(C)c1 | 3.37

From article PMC4336329 (PLoS ONE, 2015)
